# Measured values: the supplement of paper PMC8728848
# The other results are listed elsewhere or left out.
# B1: GSL-I (Griffonia simplicifolia) (protein)
# chain: FNLPNFWSDVKDNIIFQGDANTTAGTLQLCKTNQYGNPLQYRAGRALYSDPVQLWDNKTGSVASFYTEFTFFLKITGDGPADGLAFFLAPPDSDVKDAGAYLGLFNKSTATQPSKNQVVAVEFDTWKNTDFPEPSYRHIGINVNSIVSVATKRWEDSDIFSGKIATARISYDGSAKILTVVLSYPDGADYILSHSVDLSKNLPNPIRVGISASTGANQFLTVYVLSWRFSSALQSTSVNAAMGPEIIRTVV
# What was measured:
# Test in all cases: glycan array binding signal (z-score within array); higher = stronger binding
# Settings in all cases: glycan notation: IUPAC condensed, linker removed
# [1] = biological target: Gal(b1-4)GlcNAc(b1-3)Gal(b1-4)GlcNAc
# Method in brief: (§1)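 Glycan array data came from 3228 arrays in the Consortium for Functional Glycomics database, and only arrays with an available protein sequence were kept. Glycan names were put into IUPAC-condensed notation, and columns mapping to the same glycan were averaged. The binding signal is a within-array Z-score, averaged across arrays of one protein sequence run at different concentrations or buffers and across linkers. A negative Z-score can be read as non-binding.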
# [2] = biological target: Gal(b1-4)GlcNAc(b1-3)Gal(b1-4)GlcNAc(b1-2)Man(a1-3)[Gal(b1-4)GlcNAc(b1-3)Gal(b1-4)GlcNAc(b1-2)Man(a1-6)]Man(b1-4)GlcNAc(b1-4)GlcNAc
# Method in brief: as §1
# [3] = biological target: Gal(b1-4)GlcNAc(b1-3)Gal(b1-4)GlcNAc(b1-2)Man(a1-3)[Gal(b1-4)GlcNAc(b1-3)Gal(b1-4)GlcNAc(b1-2)Man(a1-6)]Man(b1-4)GlcNAc(b1-4)[Fuc(a1-6)]GlcNAc
# Method in brief: as §1
# [4] = biological target: Gal(b1-4)GlcNAc(b1-3)Gal(b1-4)GlcNAc(b1-2)[Gal(b1-4)GlcNAc(b1-3)Gal(b1-4)GlcNAc(b1-6)]Man(a1-6)[Gal(b1-4)GlcNAc(b1-3)Gal(b1-4)GlcNAc(b1-2)Man(a1-3)]Man(b1-4)GlcNAc(b1-4)GlcNAc
# Method in brief: as §1
# [5] = biological target: Gal(b1-4)GlcNAc(b1-3)Gal(b1-4)GlcNAc(b1-2)[Gal(b1-4)GlcNAc(b1-3)Gal(b1-4)GlcNAc(b1-6)]Man(a1-6)[Gal(b1-4)GlcNAc(b1-3)Gal(b1-4)GlcNAc(b1-2)Man(a1-3)]Man(b1-4)GlcNAc(b1-4)[Fuc(a1-6)]GlcNAc
# Method in brief: as §1
# [6] = biological target: Gal(b1-4)GlcNAc(b1-3)Gal(b1-4)GlcNAc(b1-3)Gal(b1-4)GlcNAc
# Method in brief: as §1
# [7] = biological target: Gal(b1-4)GlcNAc(b1-3)Gal(b1-4)GlcNAc(b1-3)Gal(b1-4)GlcNAc(b1-2)Man(a1-3)[Gal(b1-4)GlcNAc(b1-3)Gal(b1-4)GlcNAc(b1-3)Gal(b1-4)GlcNAc(b1-2)Man(a1-6)]Man(b1-4)GlcNAc(b1-4)GlcNAc
# Method in brief: as §1
# [8] = biological target: Gal(b1-4)GlcNAc(b1-3)Gal(b1-4)GlcNAc(b1-3)Gal(b1-4)GlcNAc(b1-2)Man(a1-3)[Gal(b1-4)GlcNAc(b1-3)Gal(b1-4)GlcNAc(b1-3)Gal(b1-4)GlcNAc(b1-2)Man(a1-6)]Man(b1-4)GlcNAc(b1-4)[Fuc(a1-6)]GlcNAc
# Method in brief: as §1
# [9] = biological target: Gal(b1-4)GlcNAc(b1-3)Gal(b1-4)GlcNAc(b1-3)Gal(b1-4)GlcNAc(b1-2)[Gal(b1-4)GlcNAc(b1-3)Gal(b1-4)GlcNAc(b1-3)Gal(b1-4)GlcNAc(b1-6)]Man(a1-6)[Gal(b1-4)GlcNAc(b1-3)Gal(b1-4)GlcNAc(b1-3)Gal(b1-4)GlcNAc(b1-2)Man(a1-3)]Man(b1-4)GlcNAc(b1-4)[Fuc(a1-6)]GlcNAc
# Method in brief: as §1
# [10] = biological target: Gal(b1-4)GlcNAc(b1-3)Gal(b1-4)GlcNAc(b1-3)Gal(b1-4)GlcNAc(b1-3)Gal(b1-4)GlcNAc(b1-2)Man(a1-3)[Gal(b1-4)GlcNAc(b1-3)Gal(b1-4)GlcNAc(b1-3)Gal(b1-4)GlcNAc(b1-3)Gal(b1-4)GlcNAc(b1-2)Man(a1-6)]Man(b1-4)GlcNAc(b1-4)GlcNAc
# Method in brief: as §1
# [11] = biological target: Gal(b1-4)GlcNAc(b1-3)Gal(b1-4)GlcNAc(b1-3)Gal(b1-4)GlcNAc(b1-3)Gal(b1-4)GlcNAc(b1-2)Man(a1-3)[Gal(b1-4)GlcNAc(b1-3)Gal(b1-4)GlcNAc(b1-3)Gal(b1-4)GlcNAc(b1-3)Gal(b1-4)GlcNAc(b1-2)Man(a1-6)]Man(b1-4)GlcNAc(b1-4)[Fuc(a1-6)]GlcNAc
# Method in brief: as §1
# [12] = biological target: Gal(b1-4)GlcNAc(b1-3)Gal(b1-4)GlcNAc(b1-3)Gal(b1-4)GlcNAc(b1-3)Gal(b1-4)GlcNAc(b1-2)[Gal(b1-4)GlcNAc(b1-3)Gal(b1-4)GlcNAc(b1-3)Gal(b1-4)GlcNAc(b1-3)Gal(b1-4)GlcNAc(b1-6)]Man(a1-6)[Gal(b1-4)GlcNAc(b1-3)Gal(b1-4)GlcNAc(b1-3)Gal(b1-4)GlcNAc(b1-3)Gal(b1-4)GlcNAc(b1-2)Man(a1-3)]Man(b1-4)GlcNAc(b1-4)[Fuc(a1-6)]GlcNAc
# Method in brief: as §1
# [13] = biological target: Gal(b1-4)GlcNAc(b1-3)Gal(b1-4)GlcNAc(b1-3)Gal(b1-4)GlcNAc(b1-3)Gal(b1-4)GlcNAc(b1-3)Gal(b1-4)GlcNAc(b1-2)Man(a1-3)[Gal(b1-4)GlcNAc(b1-3)Gal(b1-4)GlcNAc(b1-3)Gal(b1-4)GlcNAc(b1-3)Gal(b1-4)GlcNAc(b1-3)Gal(b1-4)GlcNAc(b1-2)Man(a1-6)]Man(b1-4)GlcNAc(b1-4)GlcNAc
# Method in brief: as §1
# [14] = biological target: Gal(b1-4)GlcNAc(b1-3)Gal(b1-4)GlcNAc(b1-3)Gal(b1-4)GlcNAc(b1-3)Gal(b1-4)GlcNAc(b1-3)Gal(b1-4)GlcNAc(b1-2)Man(a1-3)[Gal(b1-4)GlcNAc(b1-3)Gal(b1-4)GlcNAc(b1-3)Gal(b1-4)GlcNAc(b1-3)Gal(b1-4)GlcNAc(b1-3)Gal(b1-4)GlcNAc(b1-2)Man(a1-6)]Man(b1-4)GlcNAc(b1-4)[Fuc(a1-6)]GlcNAc
# Method in brief: as §1
# [15] = biological target: Gal(b1-4)GlcNAc(b1-3)Gal(b1-4)GlcNAc(b1-3)Gal(b1-4)GlcNAc(b1-3)Gal(b1-4)GlcNAc(b1-3)Gal(b1-4)GlcNAc(b1-2)[Gal(b1-4)GlcNAc(b1-3)Gal(b1-4)GlcNAc(b1-3)Gal(b1-4)GlcNAc(b1-3)Gal(b1-4)GlcNAc(b1-3)Gal(b1-4)GlcNAc(b1-6)]Man(a1-6)[Gal(b1-4)GlcNAc(b1-3)Gal(b1-4)GlcNAc(b1-3)Gal(b1-4)GlcNAc(b1-3)Gal(b1-4)GlcNAc(b1-3)Gal(b1-4)GlcNAc(b1-2)Man(a1-3)]Man(b1-4)GlcNAc(b1-4)[Fuc(a1-6)]GlcNAc
# Method in brief: as §1
# [16] = biological target: Gal(b1-4)GlcNAc(b1-3)Gal(b1-4)GlcNAc(b1-3)Gal(b1-4)GlcNAc(b1-3)Gal(b1-4)GlcNAc(b1-3)Gal(b1-4)GlcNAc(b1-3)Gal(b1-4)GlcNAc(b1-2)Man(a1-3)[Gal(b1-4)GlcNAc(b1-3)Gal(b1-4)GlcNAc(b1-3)Gal(b1-4)GlcNAc(b1-3)Gal(b1-4)GlcNAc(b1-3)Gal(b1-4)GlcNAc(b1-3)Gal(b1-4)GlcNAc(b1-2)Man(a1-6)]Man(b1-4)GlcNAc(b1-4)GlcNAc
# Method in brief: as §1
# [17] = biological target: Gal(b1-4)GlcNAc(b1-3)Gal(b1-4)GlcNAc(b1-3)GalNAc
# Method in brief: as §1
# [18] = biological target: Gal(b1-4)GlcNAc(b1-3)Gal(b1-4)GlcNAc(b1-3)[Gal(b1-4)GlcNAc(b1-3)Gal(b1-4)GlcNAc(b1-6)]GalNAc
# Method in brief: as §1
# [19] = biological target: Gal(b1-4)GlcNAc(b1-3)Gal(b1-4)GlcNAc(b1-6)[Gal(b1-3)]GalNAc
# Method in brief: as §1
binder,measurement,setting,value
B1,glycan array binding signal (z-score),[1],-0.198
same,glycan array binding signal (z-score),[2],0.662
same,glycan array binding signal (z-score),[3],0.153
same,glycan array binding signal (z-score),[4],-0.091
same,glycan array binding signal (z-score),[5],-0.021
same,glycan array binding signal (z-score),[6],-0.25
same,glycan array binding signal (z-score),[7],0.929
same,glycan array binding signal (z-score),[8],-0.136
same,glycan array binding signal (z-score),[9],-0.162
same,glycan array binding signal (z-score),[10],-0.171
same,glycan array binding signal (z-score),[11],0.038
same,glycan array binding signal (z-score),[12],-0.244
same,glycan array binding signal (z-score),[13],-0.259
same,glycan array binding signal (z-score),[14],-0.044
same,glycan array binding signal (z-score),[15],0.4
same,glycan array binding signal (z-score),[16],0.02
same,glycan array binding signal (z-score),[17],0.65
same,glycan array binding signal (z-score),[18],0.781
same,glycan array binding signal (z-score),[19],0.727
